The whole screen tested about 150,000 compounds, of which about 540 (0.36%) showed an effect of 50% or more. Some of the results follow.

One may read the % Inhibition as the relative decrease from the control value, in per cent.

In the test the test system is Plasmodium falciparum. Put plainly: Primary screen in NF54 nanoGlo assay, in single point, at 2uM, 72h; a lower Z score goes with more inhibition. The class given is functional, Erythrocyte. The conditions noted are these: timepoint 72 hour.
In the case of `COCCC(=O)Nc1c(C(=O)OC)n(CCc2c[nH]c3ccccc23)c2ncc(NC3CCN(C(C)C)CC3)cc12`, the “% Inhibition” value was 0% and the Z score is -0.01.
In the same order, the values of `COC(=O)c1n[nH]c2c1CN(C(=O)Nc1ccc3c(c1)OCCO3)CC2` are 0% and 0.09.
For `C[C@@H](CNC(=O)CCC1CCCC1)NC(=O)CCC1CCCC1`, in that order: 11% and -1.33.
In the same order, the values of `O=C1Nc2cc(Br)ccc2C12CC2` are 0% and -0.03.
Take `O=C1NC2(CCCC2)C(=O)N1C[C@H](O)COc1ccc(F)cc1`: the “% Inhibition” value is -7% and the Z score was 0.75.
In the same order, the values of `O=C(O)CCN1CCN(Cc2ccccc2)C2(CCCCC2)C1` are 13% and -2.32.
In the same order, the values of `CC[C@H](C)NC(=O)c1cnn(-c2cc(-c3nc(C(C)C)no3)ccn2)c1C` are -5% and 0.86.
`Cc1nc(COC(=O)[C@H]2CC(=O)N(c3ccccc3)C2)no1`: the “% Inhibition” value was -9% and the Z score is reported as 1.44.
For `O=C(NCc1nc(C(F)(F)F)no1)N[C@H]1Cc2cncn2C1`, in that order: -1% and 0.21.
In the case of `CN1CCC(CNC(=O)C2CC23CCOc2ccccc23)(N2CCOCC2)CC1` (stereo not given), the “% Inhibition” value worked out at 2% and the Z score was -0.25.
In the same order, the values of `Nc1nccnc1C(=O)N1CC2CCCC2C1` (stereo not given) are -4% and 0.55.
For `CCn1nccc1C(=O)N1CC[C@H](CC(=O)NCc2ccncc2)C1`, in that order: 29% and -4.16.
With `O=S(=O)(Nc1c(F)cccc1F)c1ccc2c(c1)OCCO2`, the “% Inhibition” value is reported as -7% and the Z score is listed as 1.07.
In the same order, the values of `Cc1cc(C(=O)NC[C@H](C)CO)c(C)cc1Br` are -8% and 1.27.
For the compound `Cc1nonc1NS(=O)(=O)Cc1ccc(Br)cc1`, the “% Inhibition” value worked out at 3% and the Z score is recorded as -0.42.
For `Cc1ccc2c(c1)nc1c3ccc4c5c(ccc(c(=O)n21)c53)C(=O)N(c1ccccc1)C4=O`, in that order: 3% and -0.51.
Regarding `C=C(C)Cn1c(-c2cnccn2)nnc1N1CCC(C)(COC)CC1`, the “% Inhibition” value was 3% and the Z score is -0.47.
As for `Cc1[nH]c(C)c(S(=O)(=O)Nc2ccccc2)c1-c1nnc(C2CC2)o1`, the “% Inhibition” value is -13% and the Z score is 2.5.
As to `COc1cccc(C(=O)N2CCN(C(=O)CCOc3ccccc3)CC2)c1`, the “% Inhibition” value was determined as 21% and the Z score was -2.72.
Consider `CC(C)Cc1cc(CNC(=O)c2cccc(-c3cc(N)ncn3)c2)on1`, for which the “% Inhibition” value is on record as -2% and the Z score is recorded as 0.34.
On to `Cc1ccnn1CC(=O)N1CCC[C@@]2(CCC(=O)N(CCc3c[nH]cn3)C2)C1`, for which the “% Inhibition” value is reported as -6% and the Z score was found to be 0.88.
For `CCc1ccccc1NC(=O)CN1CCN(C(=O)CN2CCOCC2)CC1`, in that order: 2% and -0.19.
As to `CC(=O)Nc1ccc(NC(=O)Cn2c(=O)c(N(C)C(C)=O)nc3ccccc32)cc1`, the “% Inhibition” value was -8% and the Z score worked out at 1.22.
With `Cc1cc(CN2CCO[C@@H](CN(C)CC(=O)O)C2)cc2cccnc12`, the “% Inhibition” value was found to be 5% and the Z score was -0.61.
For `COC1(CNC(=O)[C@H]2CCc3cncn3C2)CCCCC1`, in that order: -9% and 1.4.
In the same order, the values of `COc1ccc(-n2ncc(Oc3ccc4c(c3)CCC4)c(Nc3cccc(C(=O)NCc4ccc(F)cc4)c3)c2=O)cc1` are 2% and -0.27.
In the same order, the values of `O=C(C[C@H]1Cc2ccccc2C2(CCN(Cc3ccccc3)CC2)O1)NC1CCCC1` are 10% and -1.39.
With `CCOCc1nc(-c2ccc(=O)[nH]c2)n(Cc2c(F)cccc2Cl)n1`, the “% Inhibition” value is listed as -8% and the Z score is given as 1.22.
Regarding `CC(C)=CCN1CCC[C@@](O)(CNC(=O)Cc2ccccc2)CC1`, the “% Inhibition” value is -10% and the Z score was 1.65.
As to `CC(C)[C@H](CNC(=O)c1ccc(NC(=O)c2cc(F)cc(F)c2)cc1O)c1cccnc1`, the “% Inhibition” value is on record as -13% and the Z score was found to be 2.09.
With `Cc1ccc(-n2nccc2NC(=O)[C@@H]2CCCCO2)nn1`, the “% Inhibition” value is -1% and the Z score is recorded as 0.15.
In the same order, the values of `Cc1cc(F)ccc1C1CCN(C(=O)c2cn(C)nn2)CC1` are 2% and -0.27.
In the same order, the values of `O=C(Cc1ccc(Cl)cc1)N1CC[C@@]2(CO)CN(Cc3ccccc3)C[C@H]2C1` are 1% and -0.08.
Consider `Cc1c(NC(=O)c2ccco2)cccc1C(=O)N1CCn2cncc2C1`, for which the “% Inhibition” value is given as -7% and the Z score turned out to be 0.94.
For `OCCn1ncc2c1CN(c1nnc(C3CCC3)o1)C2`, in that order: -21% and 2.06.
As to `COc1cccc(NC2=NC(N)=NC3(CCCC3)N2)c1`, the “% Inhibition” value is given as 3% and the Z score was -0.66.
For `Cc1ccc(C)c(N2CCN(C(=O)c3cc4n(n3)CCCN(Cc3cccc(F)c3)C4=O)CC2)c1`, in that order: -9% and 1.66.
`CCC(CC)N(C)C(=O)c1ccc2c(c1)COCO2`: the “% Inhibition” value stood at 2% and the Z score was -0.35.
Consider `Cc1ccc(-c2nc3cccnc3o2)cc1NC(=O)c1cccc(Cl)c1Cl`, for which the “% Inhibition” value was -7% and the Z score is 1.26.
For `O=S(=O)(Nc1cccc2c1OCCO2)c1ccc2c(c1)OCCO2`, in that order: -6% and 0.94.
As for `COc1ccc(N([C@H]2CCS(=O)(=O)C2)S(=O)(=O)c2c(C)cc(C)cc2C)cc1`, the “% Inhibition” value is given as -18% and the Z score is 2.46.
For `CN(C)c1ncc(Br)cc1C(=O)N(C)c1nccs1`, in that order: -10% and 1.26.
For `Cc1cc(NC(=O)C2CCN(c3cc(C(F)(F)F)ncn3)CC2)ccc1Br`, in that order: 2% and -0.21.
In the same order, the values of `Cc1n[nH]c(CNc2cnccn2)c1C` are -11% and 1.88.
For the compound `CCCn1ccnc1CNc1cc(CC)ncn1`, the “% Inhibition” value is listed as -12% and the Z score is recorded as 2.31.
For `COc1ccc(Cn2nc(C)n(C)c2=O)cc1`, the “% Inhibition” value is on record as -14% and the Z score was 1.61.
Regarding `O=C(Cc1ccc2c(c1)OCO2)N1CC[C@H](Oc2cnc3ccccc3n2)C1`, the “% Inhibition” value turned out to be 10% and the Z score is -1.94.
In the same order, the values of `Nc1cccc(C(=O)N2CCC(CNC(=O)c3ccco3)CC2)n1` are -1% and 0.2.
`Cc1ncsc1CN1CCCC1CN1CCCC1CO` (stereo not given): the “% Inhibition” value is recorded as -3% and the Z score is given as 0.39.
For `O=C(c1scc2c1OCCO2)N1CCOC[C@@H](O)C1`, in that order: -18% and 1.68.
In the case of `O=C(N1CC(O)C1)C1(c2cccs2)CCCCC1`, the “% Inhibition” value is on record as 1% and the Z score is -0.09.
For `CCOc1cccc(Cn2nnc3c(cnn3C)c2=O)n1`, in that order: -14% and 1.91.
For `CC[C@@H](CO)N(CC=C(C)C)Cc1cccnc1`, in that order: -22% and 2.05.
For `Cc1nnc(NCc2cc(C(F)F)on2)nc1C`, in that order: 5% and -1.
As to `CCc1ccc(-c2cc3c(=O)n(CC(=O)N4CCOCC4)ncn3n2)cc1`, the “% Inhibition” value is reported as -23% and the Z score turned out to be 2.03.
For `COCCN(Cc1ccc(OC)c(OS(=O)(=O)c2ccc(OC)cc2)c1)C(=O)c1cccc(F)c1`, in that order: 3% and -0.59.
In the case of `Fc1ccc([C@@H]2CCN2CCn2cc(Cl)cn2)cc1`, the “% Inhibition” value is recorded as 12% and the Z score is given as -1.59.
Consider `CNC(=O)NC(=O)[C@H](C)N(C)Cc1cccc(C#N)c1`, for which the “% Inhibition” value is -6% and the Z score was 0.86.
For `CN(C)c1nnc(CNS(=O)(=O)c2ccc(F)c(C(F)F)c2)[nH]1`, in that order: -2% and 0.41.
For the compound `Cc1nscc1C(=O)N1CC(c2ccccc2)C2COCCC21` (stereo not given), the “% Inhibition” value was 6% and the Z score was -0.57.
On to `O=C(N[C@@H]1C=C[C@H](CO)C1)c1cccnc1C1CC1`, for which the “% Inhibition” value is listed as 5% and the Z score is -0.62.
In the same order, the values of `COc1cnccc1CNc1nc(CC(C)C)ns1` are -7% and 1.45.
In the case of `CCc1cnc(C)nc1N1CCC2(CCC(=O)N([C@H]3CCN(C)C3)C2)CC1`, the “% Inhibition” value was -7% and the Z score worked out at 1.13.
In the case of `O=C(Cc1cccs1)N[C@@H](Cn1nccn1)c1ccccc1`, the “% Inhibition” value is -15% and the Z score is given as 2.28.
For `CCCNC(=O)Cn1cc2c(n1)CCN(C(=O)OC(C)(C)C)C2`, in that order: -7% and 1.06.
On to `O=C(NCc1ccc(F)cc1)N1CCCN([C@H]2CCOC2)CC1`, for which the “% Inhibition” value is -8% and the Z score amounted to 1.43.
As for `Cc1ccn2c(NC(=O)C3=NN(c4ccccc4)C(=O)CC3)nnc2c1`, the “% Inhibition” value is on record as -11% and the Z score was 1.56.
In the same order, the values of `NC(=O)c1ccc(NC(=O)Cn2ccc3cc(OCc4ccccc4)ccc32)cc1` are -16% and 2.03.
`CCN(C(=O)c1ccnc(N(C)C)c1)C1CC1`: the “% Inhibition” value was 0% and the Z score is -0.03.
For `Cn1c(=O)ccc2ccc(NC(=O)N3CCCC4(CC3)CC4)cc21`, in that order: -13% and 1.65.
For `C[C@@H](Cn1cncn1)c1nc(Cc2cccs2)nn1CC(C)(C)O`, the “% Inhibition” value is -8% and the Z score was 1.
In the same order, the values of `COc1cc2c(cc1OC)CN(C(=O)Cn1c(C)ccc1C)CC2` are -20% and 2.46.
In the same order, the values of `NC(=O)CCS(=O)(=O)CCn1cc(-c2cccc(Cl)c2)nn1` are -4% and 0.78.
For `Cn1nc(NC(=O)NC2CCC3CCCC3C2)cc1C1CC1` (stereo not given), in that order: -12% and 1.49.
On to `COc1ccc(CNC(=O)c2nc[nH]c2C(=O)NCCC(C)C)cc1`, for which the “% Inhibition” value is on record as -5% and the Z score stood at 0.6.
Take `CN(C)S(=O)(=O)Cc1ccc(Br)cc1F`: the “% Inhibition” value amounted to 3% and the Z score was -0.5.
In the same order, the values of `CC(C)NC(N)=NCc1c(F)c(F)cc(F)c1F` are -12% and 1.4.
On to `O=C(Nc1ccc(Cl)cc1)c1nnc([C@H]2CCCN(C(=O)CC3CCCC3)C2)s1`, for which the “% Inhibition” value is reported as -5% and the Z score is 0.78.
For `CCn1ccnc1CN(C)Cc1nc(-c2ccc(-c3ccccc3)cc2)oc1C`, in that order: -4% and 0.63.
For `COc1ccccc1Oc1cc(N2CCN(C(=O)c3ccc(C)cc3)[C@@H](C)C2)ncn1`, in that order: -10% and 1.43.
In the same order, the values of `O=C(Nc1nnc(C(F)F)s1)N[C@H]1CCCC12CCCCC2` are -4% and 0.51.
With `CC1CCCc2ccccc2C1NC(=O)c1cn[nH]c1` (stereo not given), the “% Inhibition” value is given as -13% and the Z score is recorded as 1.66.
In the same order, the values of `O=C(NC(C1CCCO1)C1(CO)CCC1)c1ccc(O)c(F)c1` (stereo not given) are -9% and 1.66.
In the same order, the values of `Cc1ccc2[nH]c(C3CN(C(=O)C4(c5ccccc5)CCOCC4)C3)nc2c1` are -8% and 1.53.
For `Cn1ccc(-c2cc(C(=O)N(C3CC3)[C@H]3CCc4ccccc43)no2)n1`, in that order: -2% and 0.47.
